Laboratory results as given in the supplement of paper PMC12067230.
Single values of this set are uncertain.

Experiment: amyloid nucleation score relative to library mode (yeast Sup35 reporter selection) (log enrichment difference); higher = more amyloid nucleation; sequences are the first 22 residues of the Bri2 peptide extended by up to 12 random residues
Settings: random library (experiment): 1;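 active = nucleation score significantly above 0 at FDR 0.05; inactive = not significantly above 0 or absent from output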
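Also: [psi-pin-] Saccharomyces cerevisiae expressing SupN fusions, induced by 100 µM Cu2SO4, selected 7 d at 30 °C without adenine and uracil, scored by deep sequencing of output versus input.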

Row | Sequence | amyloid nucleation score
1 | EASNCFAIRHFENKFAVETLICVASPPLYWVEMD | inactive
2 | EASNCFAIRHFENKFAVETLICCTGSALCQECGM | 7.24
3 | EASNCFAIRHFENKFAVETLICRGNGVLLLWCGY | inactive
4 | EASNCFAIRHFENKFAVETLICHFHCGCDTTLFH | 8.95
5 | EASNCFAIRHFENKFAVETLICGRASCSVVSSRL | inactive
6 | EASNCFAIRHFENKFAVETLICNSKWLEFVRMGG | inactive
7 | EASNCFAIRHFENKFAVETLICWKLFSSCSFTFA | -0.0194
8 | EASNCFAIRHFENKFAVETLICATRALTSAIWLC | inactive
9 | EASNCFAIRHFENKFAVETLICIVGFWVKVLLAR | 3.06
10 | EASNCFAIRHFENKFAVETLICGTFEGRLSCGSM | inactive
11 | EASNCFAIRHFENKFAVETLICDMCGWLRYLGRV | 7.58
12 | EASNCFAIRHFENKFAVETLICYERAMPNWGREL | 1.57
13 | EASNCFAIRHFENKFAVETLICMCWASCGGYL | inactive
14 | EASNCFAIRHFENKFAVETLICPAMIPRTVVPSI | -0.317
15 | EASNCFAIRHFENKFAVETLICCLHAFNEGSEWR | 7.2
16 | EASNCFAIRHFENKFAVETLICFFLRVYHTTRVS | inactive
17 | EASNCFAIRHFENKFAVETLICRRVIQPLLRELP | inactive
18 | EASNCFAIRHFENKFAVETLICTVCGPSSALGGT | 8.23
19 | EASNCFAIRHFENKFAVETLICRYSVSLGSGGIG | inactive

Row | Sequence | amyloid nucleation score
20 | EASNCFAIRHFENKFAVETLICTVTYGVMDDVWR | inactive
21 | EASNCFAIRHFENKFAVETLICVSIVLFTWDVR | inactive
22 | EASNCFAIRHFENKFAVETLICGLVESKCCVEKV | 4.55
23 | EASNCFAIRHFENKFAVETLICIPHPRCTCHVLR | inactive
24 | EASNCFAIRHFENKFAVETLICRVLTCISGLGAL | inactive
25 | EASNCFAIRHFENKFAVETLICWKRGDIVGVRSG | -0.517
26 | EASNCFAIRHFENKFAVETLICVHYCLY | inactive
27 | EASNCFAIRHFENKFAVETLICGAQWSSTSLCEM | inactive
28 | EASNCFAIRHFENKFAVETLICLRCT | 3.66
29 | EASNCFAIRHFENKFAVETLICIMLGPGWTSWCK | inactive
30 | EASNCFAIRHFENKFAVETLICRRVRCRQQGVLH | inactive
31 | EASNCFAIRHFENKFAVETLICESRIKNQ | inactive
32 | EASNCFAIRHFENKFAVETLICFTVSEGAWSVRP | 1.78
33 | EASNCFAIRHFENKFAVETLICTFG | inactive
34 | EASNCFAIRHFENKFAVETLICYCSRDVVEGRGK | 5.7
35 | EASNCFAIRHFENKFAVETLICGVAQIVRPIWFA | inactive
36 | EASNCFAIRHFENKFAVETLICFRVTSNVGRKGR | -0.399
37 | EASNCFAIRHFENKFAVETLICLVMRLVVMESSV | inactive
38 | EASNCFAIRHFENKFAVETLICQWS | inactive

Row | Sequence | amyloid nucleation score
39 | EASNCFAIRHFENKFAVETLICVTPRLGRIRHAG | inactive
40 | EASNCFAIRHFENKFAVETLICLPWRR | 7
41 | EASNCFAIRHFENKFAVETLICRLRPVRRGVGS | inactive
42 | EASNCFAIRHFENKFAVETLICYLCFCYDVFKRR | 4.65
43 | EASNCFAIRHFENKFAVETLICPDALDEKRDRMG | inactive
44 | EASNCFAIRHFENKFAVETLICAGTIVALKERLL | inactive
45 | EASNCFAIRHFENKFAVETLICFNSECMIGDLFR | 7.96
46 | EASNCFAIRHFENKFAVETLICCN | 1.58
47 | EASNCFAIRHFENKFAVETLICQLMIPGDHINSA | 4.59
48 | EASNCFAIRHFENKFAVETLICVRVKVTRPAKCG | inactive
49 | EASNCFAIRHFENKFAVETLICFSVRFSLSGMGT | 2.19
50 | EASNCFAIRHFENKFAVETLICTPVVDCCSGMWS | 5.44
51 | EASNCFAIRHFENKFAVETLICNANPEM | inactive
52 | EASNCFAIRHFENKFAVETLICRCIK | 5.68
53 | EASNCFAIRHFENKFAVETLICDGMRNQGATG | inactive
54 | EASNCFAIRHFENKFAVETLICEGYVFCPVTRSR | inactive
55 | EASNCFAIRHFENKFAVETLICGVTYEACAKLQL | 2.98
56 | EASNCFAIRHFENKFAVETLICRRWDAWN | inactive
57 | EASNCFAIRHFENKFAVETLICVRL | 1.3

Same assay, conditions: random library (experiment): 2

Row | Sequence | amyloid nucleation score
58 | EASNCFAIRHFENKFAVETLICDLGVYYFYGRSG | 1.51
59 | EASNCFAIRHFENKFAVETLICVLMGNYG | 5.77
60 | EASNCFAIRHFENKFAVETLICVFFAFLGSSDEG | 4.64
61 | EASNCFAIRHFENKFAVETLICVGRGVG | inactive
62 | EASNCFAIRHFENKFAVETLICVWCFKFMTLFHH | inactive
63 | EASNCFAIRHFENKFAVETLICFMSDLWNRGWME | 0.574
64 | EASNCFAIRHFENKFAVETLICAMAASARMLRCG | inactive
65 | EASNCFAIRHFENKFAVETLICCRFVS | 2.77
66 | EASNCFAIRHFENKFAVETLICFFVYYSYISVC | inactive
67 | EASNCFAIRHFENKFAVETLICYTWCSVPACKCT | inactive
68 | EASNCFAIRHFENKFAVETLICVSFCNMKINLWM | 5.55
69 | EASNCFAIRHFENKFAVETLICANLLNIVEEATV | 6.74
70 | EASNCFAIRHFENKFAVETLICVCDKYNYSTLWI | inactive
71 | EASNCFAIRHFENKFAVETLICTVSFRDTVYRRL | 2.24
72 | EASNCFAIRHFENKFAVETLICKFKGLGSSCVA | inactive
73 | EASNCFAIRHFENKFAVETLICNWSV | 6.97
74 | EASNCFAIRHFENKFAVETLICRSSWRVCFWFEA | inactive

Row | Sequence | amyloid nucleation score
75 | EASNCFAIRHFENKFAVETLICTTNMRFAWIAAP | 2.93
76 | EASNCFAIRHFENKFAVETLICGSVEFSVYFREK | 4.26
77 | EASNCFAIRHFENKFAVETLICLLN | 3.5
78 | EASNCFAIRHFENKFAVETLICVIRFFYQSFD | inactive
79 | EASNCFAIRHFENKFAVETLICMNF | 7.44
80 | EASNCFAIRHFENKFAVETLICRILCSIYFGGIQ | inactive
81 | EASNCFAIRHFENKFAVETLICKFKSFYYRSCFG | -0.157
82 | EASNCFAIRHFENKFAVETLICKNTSNHIVLAGG | -0.344
83 | EASNCFAIRHFENKFAVETLICEYTNNSVNTVIP | inactive
84 | EASNCFAIRHFENKFAVETLICQLYTCCR | inactive
85 | EASNCFAIRHFENKFAVETLICNQFIVYLALMRM | 2.31
86 | EASNCFAIRHFENKFAVETLICYNFKHLCSLALV | 3.73
87 | EASNCFAIRHFENKFAVETLICVVIFKSGSLDIS | inactive
88 | EASNCFAIRHFENKFAVETLICIFSRVWVVKSPE | inactive
89 | EASNCFAIRHFENKFAVETLICYDSVRMRMLSGV | 3.52
90 | EASNCFAIRHFENKFAVETLICYWDIFGIVKRLL | inactive
91 | EASNCFAIRHFENKFAVETLICCMKRPEI | 0.683

Same assay, conditions: random library (experiment): 3

Row | Sequence | amyloid nucleation score
92 | EASNCFAIRHFENKFAVETLICPQMRLQHCVGSQ | inactive
93 | EASNCFAIRHFENKFAVETLICEVSAVWESRGQS | 1.56
94 | EASNCFAIRHFENKFAVETLICDAMGVLAWASFM | inactive
95 | EASNCFAIRHFENKFAVETLICQAVEWSGRCSRG | 1.13
96 | EASNCFAIRHFENKFAVETLICLAVWQCARPALP | inactive
97 | EASNCFAIRHFENKFAVETLICASCVYLSLAGAD | 8.74
98 | EASNCFAIRHFENKFAVETLICCWEFDTYCRHST | inactive
99 | EASNCFAIRHFENKFAVETLICFRPVVDQPDECG | inactive
100 | EASNCFAIRHFENKFAVETLICTLTMVKHRYEWS | inactive
101 | EASNCFAIRHFENKFAVETLICVGTFCVGMWHRR | inactive
102 | EASNCFAIRHFENKFAVETLICYKSIRDVMYHFV | inactive
103 | EASNCFAIRHFENKFAVETLICGAECLVYRPVGK | inactive
104 | EASNCFAIRHFENKFAVETLICPIMHICVFVVPR | 4.5
105 | EASNCFAIRHFENKFAVETLICDIFS | inactive
106 | EASNCFAIRHFENKFAVETLICDFCCRHVAIPRV | inactive
107 | EASNCFAIRHFENKFAVETLICLKGSACIGLPHG | 3.27
108 | EASNCFAIRHFENKFAVETLICIESSPVVDRVQS | inactive
109 | EASNCFAIRHFENKFAVETLICMYVVINSMSFDV | inactive
110 | EASNCFAIRHFENKFAVETLICHTAMVIRLRWDA | inactive
111 | EASNCFAIRHFENKFAVETLICGRLRLRCKTVPR | inactive
112 | EASNCFAIRHFENKFAVETLICRCNAVLSGRTVG | inactive
113 | EASNCFAIRHFENKFAVETLICWFFVYLEDVATV | inactive
114 | EASNCFAIRHFENKFAVETLICNPNSTHVELPCC | inactive
115 | EASNCFAIRHFENKFAVETLICARQGLGFSCYKM | 3.35
116 | EASNCFAIRHFENKFAVETLICLCAVISMLGSFE | inactive
117 | EASNCFAIRHFENKFAVETLICIEGGEMILICR | inactive
118 | EASNCFAIRHFENKFAVETLICYSWASVIGYVYT | inactive
119 | EASNCFAIRHFENKFAVETLICEDASEHVGWGSW | inactive
